# Measured values: publication PMC6451091
# The other results are listed elsewhere or left out. For some assays here: At the low end of the ranking the order means little. For some assays here: Measured with an extract: partners may take part in the binding.
# Biological target: PU.1 (IVT) (UniProt P17947)
# Assay: protein-binding microarray (PBM)
# Details: 20 mM HEPES pH 7.9, 100 mM NaCl, 1 mM DTT, 0.2 mg/mL BSA, 0.02% Triton X-100, 2% milk, 0.4 mg/mL salmon testes DNA; 1 h; temperature not stated; high values mean tight binding; double strand, one strand shown; sequences stand for … in GCCTAGCAC…GTGCTAGGTCTTGATTCGCTTGACGCTGCTG
row,Sequence,binding signal
1,TGGCAGAGGAAGTGAAACTA,3.6 z-score
2,AAAGAGAGGAAGTGAAACTC,4.75 z-score
3,GCAAAGGGGAAATGAAACTT,3.31 z-score
4,GATAAGAGGAACTGACAGCT,4 z-score
5,GATAAGAGGAACTGAAAGCT,4.58 z-score
6,AAAAACAGGAAATGAAAGTA,5.43 z-score
7,TGTGAAAGGAAGTGAAACTG,1.87 z-score
8,TGGCAGAGGAACTGAAACTA,1.47 z-score
9,CTCCAGAGGAAGTGAAACTT,2.79 z-score
10,AAAAAAAGGAAATGGAAGTA,4.49 z-score
11,TAAACGAGGAACTGAAACCA,1.99 z-score
12,GATAAGAGGAATTGAAAGCT,1.2 z-score
13,AGAAAGAGGAAGCGAAACTC,5.78 z-score
14,CTGGCATGGAACTGAAACTC,-0.258 z-score
15,GATTTGAGGAAATGAAACTT,3.79 z-score
16,TGCAACAGGAAGTGAAACCA,4.15 z-score
17,CTGGGAGGGAACTGAAACTC,0.859 z-score
18,TTGGAAAGGAAGTGAAACTG,2.04 z-score
19,TAAAAGAGGAACAGAAACTC,5.06 z-score
20,TGAGAGGAGTAGTGAAACCT,-0.488 z-score

row,Sequence,binding signal
1,AAATTAAGGAACTGAAACTC,4.01 z-score
2,TAGAAGAGGAAGAGAAACTT,2.69 z-score
3,CAGAAAAAGAAGTGAAACTA,0.472 z-score
4,AAAAAAAGGAAATGACAGTA,3.34 z-score
5,CTTCCAGGGAAGTGAAAGCA,1.08 z-score
6,GAAGACAGGAAGTGAAACTT,3.72 z-score
7,GCCTAGGGGAACTGAAACTG,1.52 z-score
8,AAGAAAAGGAAATGAAAGTA,1.42 z-score
9,TGAAACAGGAAGAGAAACCA,2.68 z-score
10,AAAAAAAGGGAATGAAAGTA,1.7 z-score
11,CTAGCAGGGAACTGAAACTC,0.688 z-score
12,GATAAGAGGAACCGAAAGCT,2.77 z-score
13,TAAAGGAGGAACTGAAATCA,3.68 z-score
14,CCCAGAGGGAAGTGAAACCA,2.42 z-score
15,ACAAACGGGAAGTGAAAGCT,5.29 z-score
16,TTGAGGAGGAAGTGAAACTG,4.48 z-score
17,CTGGCAGGGAACTGAAATTC,0.933 z-score
18,TGGCAGAGGAAGTGAAAGTA,3.54 z-score
19,ATCTTAGGGAACTGAAACCC,1.75 z-score
20,TGAAGCAGGAAGTGAAACCA,3.23 z-score

# Biological target: T1, FLI1 (endogenous, THP-1 nuclear extract) (UniProt Q01543)
# T1 sequence: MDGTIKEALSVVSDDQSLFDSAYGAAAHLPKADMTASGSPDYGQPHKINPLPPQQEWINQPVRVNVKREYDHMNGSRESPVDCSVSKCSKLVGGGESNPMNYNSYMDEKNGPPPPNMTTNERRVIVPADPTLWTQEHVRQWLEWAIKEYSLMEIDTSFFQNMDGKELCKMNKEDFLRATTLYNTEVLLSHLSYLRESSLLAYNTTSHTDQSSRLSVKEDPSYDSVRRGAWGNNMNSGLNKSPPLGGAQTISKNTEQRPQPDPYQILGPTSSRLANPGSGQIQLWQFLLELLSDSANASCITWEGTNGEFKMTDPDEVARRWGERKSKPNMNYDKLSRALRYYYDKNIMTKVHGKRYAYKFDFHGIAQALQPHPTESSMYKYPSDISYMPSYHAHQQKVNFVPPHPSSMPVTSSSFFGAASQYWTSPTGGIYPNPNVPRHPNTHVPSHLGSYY
# Assay: nuclear extract protein-binding microarray (nextPBM)
# Details: 20 mM HEPES pH 7.9, 100 mM NaCl, 1 mM DTT, 0.2 mg/mL BSA, 0.02% Triton X-100, 2% milk, 0.4 mg/mL salmon testes DNA; 1 h; temperature not stated; high values mean tight binding; double strand, one strand shown; sequences stand for … in GCCTAGCAC…GTGCTAGGTCTTGATTCGCTTGACGCTGCTG
row,Sequence,binding signal
1,TGGCAGAGGAAGTGAAACTA,3.91 z-score
2,AAAGAGAGGAAGTGAAACTC,3.71 z-score
3,GCAAAGGGGAAATGAAACTT,2.54 z-score
4,GATAAGAGGAACTGACAGCT,1.55 z-score
5,GATAAGAGGAACTGAAAGCT,2 z-score
6,AAAAACAGGAAATGAAAGTA,5.1 z-score
7,TGTGAAAGGAAGTGAAACTG,2.78 z-score
8,TGGCAGAGGAACTGAAACTA,1.38 z-score
9,CTCCAGAGGAAGTGAAACTT,3.16 z-score
10,AAAAAAAGGAAATGGAAGTA,3.01 z-score
11,TAAACGAGGAACTGAAACCA,1.32 z-score
12,GATAAGAGGAATTGAAAGCT,0.422 z-score
13,AGAAAGAGGAAGCGAAACTC,3.95 z-score
14,CTGGCATGGAACTGAAACTC,0.218 z-score
15,GATTTGAGGAAATGAAACTT,2.18 z-score
16,TGCAACAGGAAGTGAAACCA,5.42 z-score
17,CTGGGAGGGAACTGAAACTC,0.442 z-score
18,TTGGAAAGGAAGTGAAACTG,3.15 z-score
19,TAAAAGAGGAACAGAAACTC,1.94 z-score
20,TGAGAGGAGTAGTGAAACCT,-0.501 z-score

row,Sequence,binding signal
1,AAATTAAGGAACTGAAACTC,2.04 z-score
2,TAGAAGAGGAAGAGAAACTT,1.51 z-score
3,CAGAAAAAGAAGTGAAACTA,0.143 z-score
4,AAAAAAAGGAAATGACAGTA,2.24 z-score
5,CTTCCAGGGAAGTGAAAGCA,0.688 z-score
6,GAAGACAGGAAGTGAAACTT,5.38 z-score
7,GCCTAGGGGAACTGAAACTG,1.1 z-score
8,AAGAAAAGGAAATGAAAGTA,2.19 z-score
9,TGAAACAGGAAGAGAAACCA,2.71 z-score
10,AAAAAAAGGGAATGAAAGTA,-0.0634 z-score
11,CTAGCAGGGAACTGAAACTC,0.00942 z-score
12,GATAAGAGGAACCGAAAGCT,1.51 z-score
13,TAAAGGAGGAACTGAAATCA,1.25 z-score
14,CCCAGAGGGAAGTGAAACCA,2.56 z-score
15,ACAAACGGGAAGTGAAAGCT,3.01 z-score
16,TTGAGGAGGAAGTGAAACTG,4 z-score
17,CTGGCAGGGAACTGAAATTC,-0.392 z-score
18,TGGCAGAGGAAGTGAAAGTA,3.21 z-score
19,ATCTTAGGGAACTGAAACCC,0.741 z-score
20,TGAAGCAGGAAGTGAAACCA,4.66 z-score
